PMC7771966

Biological target: glutathione S-transferase-calreticulin (GST-CRT) (UniProt P15253)
Assay: pull-down; GST-CRT or GST-CRT-Y109A on glutathione beads, 16 h at 4 C with lysate (MNT: 20 mM MES, 100 mM NaCl, 30 mM Tris pH 7.5, 0.5% Triton X-100, protease inhibitors, 20 mM NEM) of ALG6-/-, ALG6/UGGT1-/- or ALG6/UGGT2-/- HEK293-EBNA1-6E cells treated with 500 uM DNJ for 14 h; immunoblot; percent reglucosylation = (GST-CRT lane minus Y109A lane) / total in whole cell lysate x 100

Chain of UniProt P15253 (P15253 18-418): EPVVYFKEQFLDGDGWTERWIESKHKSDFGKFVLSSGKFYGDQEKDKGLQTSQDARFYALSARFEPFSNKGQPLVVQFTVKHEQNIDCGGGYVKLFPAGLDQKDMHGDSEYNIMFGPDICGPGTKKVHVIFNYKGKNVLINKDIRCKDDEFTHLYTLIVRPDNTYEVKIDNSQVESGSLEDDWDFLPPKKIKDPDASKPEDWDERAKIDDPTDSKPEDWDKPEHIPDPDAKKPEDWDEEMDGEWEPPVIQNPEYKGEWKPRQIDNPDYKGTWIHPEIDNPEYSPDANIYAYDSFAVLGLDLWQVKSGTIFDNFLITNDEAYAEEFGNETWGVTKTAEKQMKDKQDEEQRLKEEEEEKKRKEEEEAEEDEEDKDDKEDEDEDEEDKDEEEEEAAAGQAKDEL

percent reglucosylation (bound by GST-CRT minus GST-CRT-Y109A, of the total in the lysate), ALG6-/- cells: 10%
Substance: cation-independent mannose-6-phosphate receptor (CI-M6PR) (a stretch of the chain, sequence left out) (receptor; monoglucosylated N-glycans (reglucosylated by the UGGTs; sites not stated))
